In the assay the test system is NCI-H322M lung. The assay is described as follows: NCI tumour cell line growth inhibition, 48 h.

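Each compound was tested at five concentrations against cells in 96-well plates for 48 hours. Abbreviation: GI50, concentration required for 50% inhibition of growth. TGI marks complete inhibition of growth.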

On to `O=C(COc1cccc(/C=C2\CSc3ccccc3C2=O)c1)Nc1nccs1`, for which the GI50 was 12.5 µM and the TGI is 25 µM.

(Values after PubChem BioAssay (NCI).)
